# This is one part of the list.
# B1: chr8:122953881:122953982:+|CDS|ENSG00000178764|msi1|FALSE|unique (ssRNA)
# RNA: GGGAGUUCUACAGUCCGACGAUCGAGUCGAGCGUUGUGGAUUACGUGGAGGUGACGGUCGGGGAGGAGGAUGCGAUCUCAGAUAGAUCAGAUAGCUGGAGUCAGGCUGCGGCAGAAGGUGUGUCGGAACUGGCUGAAUCAGACCAACAGAGGAUUGAGCAUCA
# B2: chr6:137492198:137493351:-|three_prime_utr|ENSG00000177468|control|control|control (ssRNA)
# RNA: GGGAGUUCUACAGUCCGACGAUCGAGAUCUCAGACUCCACUUGACCCCCGGAGGGAAAGGACCAAAAUCAAACCGCAAUUUCUAGGUGGUAGCAAAGGGGGACUCGAACCAGAUGUCGUGUGUUUUGCAUGCAUGCUUCUUUUCAACAGAGGAUUGAGCAUCA
# B3: ENSG00000198589:be:win_4751|CDS|ENSG00000198589|bound_else_gene|NA|bound_elsewhere_windowed (ssRNA)
# RNA: GGGAGUUCUACAGUCCGACGAUCGCACUUUAACUACGGCAUCAGUGGAAGAAUCUGAAAGCACAUCAUCUGCUCGAAGGAGGGACUCAGGCAUUGGGGAAGAAACAGCCACUGGUUUAGGAAGCCAUGUGGAAGUAACUCCUCCAACAGAGGAUUGAGCAUCA
# B4: chr22:38485951:38486139:-|CDS|ENSG00000100201|unk|FALSE|bound_elsewhere (ssRNA)
# RNA: GGGAGUUCUACAGUCCGACGAUCUAGUAGCACCACCUCAACUGGGAGAAGUUCACAGAGCUCUAGCCAGCAGUUUAGUGGGAUAGGCCGGUCUGGGCAGCAGCCACAGCCACUGAUGUCACAACAGUUUGCACAGCCUCCGGGCAACAGAGGAUUGAGCAUCA
# B5: ENSG00000070961:be:win_1501|CDS|ENSG00000070961|bound_else_gene|NA|bound_elsewhere_windowed (ssRNA)
# RNA: GGGAGUUCUACAGUCCGACGAUCCCUGAACCAGAAGCUAUUCCACCAAAUAUUUUGUCCUAUCUUGUAACAGGAAUUUCUGUGAAUUGUGCUUAUACAUCAAAAAUAUUGCCACCAGAGAAAGAGGGUGGAUUACCUCGUCACCAACAGAGGAUUGAGCAUCA
# B6: ENSG00000150753:stop:overlap|stop_codon|ENSG00000150753|stop_codon|NA|stop_codon (ssRNA)
# RNA: GGGAGUUCUACAGUCCGACGAUCUCAGGAUGAUGAAAUUGGAGAUGGAACCACAGGAGUGGUUGUCCUGGCUGGUGCCUUGUUAGAAGAAGCGGAGCAAUUGCUAGACCGAGGCAUUCACCCAAUCAGAAUAGCCGAUGGCUACAACAGAGGAUUGAGCAUCA
# B7: chr19:4361374:4361475:-|3pUTR|ENSG00000141985|msi1|total|mutant (ssRNA)
# RNA: GGGAGUUCUACAGUCCGACGAUCCAGGACCCCACACUUGGGUGGGGGGGCUUAUCUGGGUGGGUGGGGAUGCCUGUUUACACCCGCGCUGACUCCCAACGGUGACGGCUCCCUUCCCCACUCCAUGGCGCCAGCCUCCUCCCCCAACAGAGGAUUGAGCAUCA
# B8: chr7:76328962:76329048:-|3pUTR|ENSG00000170027|msi1_unk|FALSE|overlapping (ssRNA)
# RNA: GGGAGUUCUACAGUCCGACGAUCACCUGAGGUCUCAUUCAUCCUUAUGGUUUAGGCCUUGCCAGUUUUCCGAAGUCUCUGAUUAGUUGACAGUAUUAACACUAAAUUGCAGUUUACAGUAUUUCUACAUUACAGCCAUAUGUACAACAGAGGAUUGAGCAUCA
# B9: chr5:150649000:150649101:+|CDS|ENSG00000171992|msi1|FALSE|bound_elsewhere (ssRNA)
# RNA: GGGAGUUCUACAGUCCGACGAUCCAGGCCUUUUGGGAUCCAGGCGCCAGGGGGCACCAGCCAGAUGGAGAGGAGCCCCAUGCUAGAGAGACGACAUUUUGGGGAGAAGGCCCCGGCUCCCCAGCCCCCCAGUUUGCCAGACAGCAACAGAGGAUUGAGCAUCA
# B10: chr20:37404728:37404829:+|3pUTR|ENSG00000197122|msi1|FALSE|unique (ssRNA)
# RNA: GGGAGUUCUACAGUCCGACGAUCGGCCUCUGCAACUGCUCAGCUCUGGUCCAGGCCCUGUGGCAGGACACACAUGGUGAGCCUAGCCCUGGGACAUCAGGAGACUGGGCUCUGGCUCUGUUCGGCCUUUGGGUGUGUGGUGGACAACAGAGGAUUGAGCAUCA
# B11: chr10:68791452:68791550:+|3pUTR|ENSG00000060339|msi1_unk|FALSE|overlapping (ssRNA)
# RNA: GGGAGUUCUACAGUCCGACGAUCCUAGCCUUCAAAUUAUUAAACACUCCUUGAGUGAAAUAAUUUUGCAUUGCAAAGUGUUUUAGGAUGAACUUUGUUAUAGUUUUAACUCCAAUAAAGUUCAUCAGUUUAAUUGACUGUAGUCAACAGAGGAUUGAGCAUCA
# B12: chr9:128810308:128810409:+|3pUTR|ENSG00000107021|unk|total|mutant (ssRNA)
# RNA: GGGAGUUCUACAGUCCGACGAUCUACAGAUUGAGCUGUAUGAAUUCAGCGGGUCUCACUCCAGAGGGUCAGAACGUUUGCUUCCGUUUUUUCAUCUGUUUUGUUCCUUGAGUCAGUGCUGUUGAUGACGAGUUGUCUUGAAUACAACAGAGGAUUGAGCAUCA
# B13: chr19:57593639:57593745:+|3pUTR|ENSG00000171649|unk|total|mutant (ssRNA)
# RNA: GGGAGUUCUACAGUCCGACGAUCUGAACCUUCUUAUUUCUCUACAUUCUUGCCAUACUUGGUAUGGUCCGUCUUUUUAAUUUCCGUUGUUUUAACCGCUGUAUAACCGCAUCUGUCUGUGAUUUUAUUGCAUUUUUCUGGUAUCAACAGAGGAUUGAGCAUCA
# B14: chr4:186618492:186618593:-|CDS|ENSG00000083857|msi1|total|mutant (ssRNA)
# RNA: GGGAGUUCUACAGUCCGACGAUCGUAAUCACUACAAAGGAGAGCCUCAUUGGCUUGGAAAAUGAAUUCUUCACUUUCUUUGUCCGAGCUGUGGAUAAUGGGUCUCCAUCAAAAGAAUCUGUUGUUCUUGUCUAUGUUAAAAUCCAACAGAGGAUUGAGCAUCA
# Target: MSI1 full-length (mouse, UniProt Q61474 1-362)
# Sequence of UniProt Q61474 (Q61474 whole entry): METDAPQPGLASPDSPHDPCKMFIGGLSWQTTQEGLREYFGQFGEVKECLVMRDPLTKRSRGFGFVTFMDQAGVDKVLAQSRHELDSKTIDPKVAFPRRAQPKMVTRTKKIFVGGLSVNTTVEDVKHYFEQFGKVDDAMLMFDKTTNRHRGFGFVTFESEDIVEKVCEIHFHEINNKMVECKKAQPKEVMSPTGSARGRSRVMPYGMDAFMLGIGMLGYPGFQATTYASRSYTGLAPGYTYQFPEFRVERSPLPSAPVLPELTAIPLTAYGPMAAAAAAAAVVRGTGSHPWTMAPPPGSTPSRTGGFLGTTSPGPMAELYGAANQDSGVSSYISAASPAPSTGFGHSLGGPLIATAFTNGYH
# Test: nsRBNS (natural sequence RNA bind-n-seq); RBNS binding buffer (assumed for nsRBNS): 25 mM Tris pH 7.5, 150 mM KCl, 3 mM MgCl2, 0.01% Triton X-100, 500 ug/ml BSA, 20 U/ml SUPERase-In, 4 C; UNK is unkempt and MSI1 is Musashi-1; names of the RNAs are library labels; protein concentration not given here; high values mean tight binding
row,Binder,binding signal [enrichment R]
1,B1,0.739
2,B2,0.62
3,B3,0.366
4,B4,0.588
5,B5,0.511
6,B6,0.662
7,B7,0.42
8,B8,3.16
9,B9,0.703
10,B10,0.357
11,B11,0.703
12,B12,0.321
13,B13,1.4
14,B14,0.378
